Structures are written as SMILES. In all, about 110,000 compounds were measured (“z-score”: median about -0.1, highest 2% from about 2 on). This is one part of the list.

For the experiment, the target named is Metabotropic glutamate receptor 8 (Rattus norvegicus) (UniProt P70579). Briefly: mGluR8 Gi/Go-coupled signaling modulation – cell-based, rat, thallium flux, HTS, primary screen (AID 488969). The following applies: HEK293 rat mGluR8, GIRK (G protein-gated inwardly rectifying potassium channel) thallium flux, FluoZin2; at 10 µM; stronger effect = higher value; submaximal glutamate (EC20) added with thallium.
Sequence of UniProt P70579 (P70579 whole entry, looked up): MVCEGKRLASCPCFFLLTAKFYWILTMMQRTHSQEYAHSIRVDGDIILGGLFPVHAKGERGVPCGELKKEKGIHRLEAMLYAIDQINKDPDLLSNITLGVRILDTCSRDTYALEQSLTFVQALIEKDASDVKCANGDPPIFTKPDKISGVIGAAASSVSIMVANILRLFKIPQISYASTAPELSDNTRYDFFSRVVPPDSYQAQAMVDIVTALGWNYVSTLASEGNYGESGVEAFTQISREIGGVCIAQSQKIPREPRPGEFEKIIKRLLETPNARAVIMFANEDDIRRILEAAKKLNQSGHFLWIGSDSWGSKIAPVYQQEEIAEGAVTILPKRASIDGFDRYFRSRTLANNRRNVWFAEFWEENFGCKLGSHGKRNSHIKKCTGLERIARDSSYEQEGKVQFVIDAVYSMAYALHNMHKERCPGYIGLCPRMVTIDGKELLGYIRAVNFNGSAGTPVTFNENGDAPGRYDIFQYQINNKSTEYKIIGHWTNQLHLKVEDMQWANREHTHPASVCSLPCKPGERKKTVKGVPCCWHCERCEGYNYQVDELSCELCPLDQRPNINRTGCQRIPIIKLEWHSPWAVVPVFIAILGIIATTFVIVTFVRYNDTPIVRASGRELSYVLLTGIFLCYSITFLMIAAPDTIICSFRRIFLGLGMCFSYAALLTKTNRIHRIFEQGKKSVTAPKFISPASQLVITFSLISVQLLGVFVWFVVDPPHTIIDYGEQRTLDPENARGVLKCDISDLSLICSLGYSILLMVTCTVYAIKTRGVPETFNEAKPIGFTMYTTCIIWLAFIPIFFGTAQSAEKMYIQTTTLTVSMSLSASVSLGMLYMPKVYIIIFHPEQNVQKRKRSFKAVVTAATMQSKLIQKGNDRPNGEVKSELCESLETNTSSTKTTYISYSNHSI
`CC1CCN(CCC(=O)N2CCCc3c2c(=O)oc2ccc(O)cc32)CC1` had a z-score of -0.623.

`O=C(Nc1ccc2c(c1)OCO2)N1CCN(c2ncc(C(F)(F)F)cc2Cl)CC1` came in with a z-score of -0.421. The compound `Nc1cc(C(=O)OCC(=O)NCc2ccc(F)cc2)ccc1Cl` returned a z-score of -0.321.

In the case of `CCN(CC)CCN1C(=O)C(=O)/C(=C(/O)c2ccc(F)cc2)C1c1ccncc1` (centres undefined), the z-score is -0.212.

The compound `COc1ccc2oc(=O)c(C(=O)NCc3ccccn3)cc2c1` returned a z-score of -0.00183. In turn, `O=S1(=O)CCC(S(=O)(=O)N2CCCCCC2)C1` (centres undefined) yielded a z-score of -0.216. On to `COc1cc(C(=O)N(Cc2ccc(F)cc2)C2CCS(=O)(=O)C2)cc(OC)c1OC` (centres undefined), for which the z-score is -0.194. Regarding `O=S(=O)(c1ccc(Cl)s1)N1CCN(c2ncccn2)CC1`, the z-score worked out at 0.108.

`CN(C(=S)NC1CCCCC1)C1(c2ccccc2Cl)CCCCC1=O` (centres undefined) gave a z-score of -0.416. The compound `CC(=O)Nc1cnn(Cc2ccc(Br)cc2)c1` gave a z-score of 0.329. With `CCOc1ccccc1/C=N/NC(=O)CNC(=O)c1ccc(S(=O)(=O)N2CCOCC2)cc1`, the z-score was -0.36. In turn, `CCCOc1ccc(OCCOCCNCc2ccccc2)cc1` had a z-score of -0.863. Consider `COc1ccc2c(c1)[nH]c1c(Cl)ncnc12`, for which the z-score is -0.17. The compound `CCc1ccccc1S(=O)(=O)Cc1ccc(C(=O)NCC2CCCO2)o1` (centres undefined) registered a z-score of -0.152. Consider `CCCCNC(=O)c1cc2nc3c(c(C(F)(F)F)n2n1)CCc1ccccc1-3`, for which the z-score was -0.114. `Cc1cc(C)c(C)c(C(=O)CSc2nnc(-c3ccc4[nH]c(C)c(C)c4c3)o2)c1C` had a z-score of 0.13. `CCOC(=O)C1=C(CSc2nc3ccccc3s2)NC(=O)NC1c1cccc([N+](=O)[O-])c1` (centres undefined) came in with a z-score of 0.469. `CC(=O)Nc1ccc(S(=O)(=O)N2CCN(CC(O)COc3ccc4ccccc4c3)CC2)cc1` (centres undefined): the z-score was 0.0161. The compound `CC(C)NC(=S)NC(=O)c1ccc(-c2ccccc2)cc1` had a z-score of 0.201. With `Cc1ccnc(SCc2nc3ccccc3s2)n1` the figure was -0.138; with `CC1(C)NC(=O)N(CCCCOc2ccc3ccccc3c2Cl)C1=O`, -0.0111; with `Nc1c(Br)cc2oc(-c3ccccc3)nc2c1Br`, -0.3. As to `COc1cc2c(cc1NC(=O)Cn1cnc3c1c(=O)n(C)c(=O)n3C)oc1ccccc12`, the z-score stood at 0.238.

`O=C(NC1CCCC1)C(c1ccccc1)N(C(=O)c1ccno1)c1ccccc1` (centres undefined) showed a z-score of 0.315.

As to `COc1cc(OC)cc(C(=O)Nc2ccc3c(c2)COC3=O)c1`, the z-score was -0.438. In the case of `COCCCNC(=O)CC(NS(=O)(=O)c1ccc(C)cc1)c1ccc(OC)cc1` (centres undefined), the z-score is -0.0343. `COCC(=O)Nc1ccc(S(=O)(=O)Nc2ncccn2)cc1` showed a z-score of 0.0612. As to `CC(=O)NC(Cc1cc(C)ccc1C)C(=O)N1CCN(C(=O)Nc2ccc(C(C)=O)cc2)CC1` (centres undefined), the z-score is 0.0589. For the compound `COc1cc2c(cc1NC(=O)c1cncc(Br)c1)oc1ccccc12`, the z-score is -0.346. `Clc1ccc(C2=Nn3c(nnc3-c3cc(-c4ccccc4)n[nH]3)SC2)cc1` showed a z-score of 0.0273. With `O=c1[nH]c(-c2cccs2)nc2ccccc12` the figure was 0.785; with `CN(CCCNC(=O)CN1C(=O)CC(C)(C)S(=O)(=O)c2ccccc21)C1CCCCC1`, 0.909.

`O=C(c1nc2ccccc2s1)N1CCN(c2ccccn2)CC1` yielded a z-score of -0.688. In turn, `O=C(CC1(O)C(=O)N(Cc2ccccc2)c2ccccc21)c1ccc2c(c1)OCO2` (centres undefined) yielded a z-score of -0.631.

`Cc1nc2ccccc2c(=O)n1/N=C/c1c(O)ccc2oc3c(c12)CCCC3` registered a z-score of -0.0316. In turn, `COc1cccc(NC(=O)CCN2CCN(c3ccccc3F)CC2)c1` had a z-score of -0.497. With `Cc1nc(-c2ccccn2)sc1C(=O)Nc1ccc(F)cc1F` the figure was 0.00231.

For `Cc1cccc(N2CCN(Cc3c(C)n(C)n(-c4ccccc4)c3=O)CC2)c1C`, the z-score is -0.00194. As for `CCC(=O)N(Cc1ccco1)c1nc(-c2ccc(OC)cc2)cs1`, the figure is 1.16. Take `COCCN1C(=O)C(=O)/C(=C(/O)c2ccc(OC(C)C)cc2)C1c1cccnc1` (centres undefined): the z-score turned out to be 0.0366. As for `O=C(NCc1ccco1)c1ccc2c(c1)N(Cc1ccccc1)C(=O)CS2`, the figure is -1.3. As for `CC(=C1C2C=CC1C1C(=O)NC(=O)C21)c1ccccc1` (centres undefined), the z-score came to 0.0886. `Cc1ccc(N/N=C/c2ccc(N3CCOCC3)cc2)cc1C`: the z-score was -0.121. With `COc1cc(S(=O)(=O)n2ccc(C)n2)c(OC)cc1Cl`, the z-score was -0.287. As for `O=C(C1CCCCN1S(=O)(=O)c1ccccc1)N1CCN(Cc2ccccc2)CC1` (centres undefined), the figure is 0.131. `Cc1ccc2cccc(S(=O)(=O)n3nc(C)cc3C)c2n1`: the z-score is -0.0908.

As to `Cc1cc(C(F)(F)F)n2nc(-c3sccc3-n3cccc3)cc2n1`, the z-score was -0.0777. Turning to `COc1cc2c(cc1OC)-c1cc(NC3CCCC3)nc(=O)n1CC2`, the z-score was -0.576. As for `O=C(Nc1ccccc1N1CCOCC1)C1Cc2ccccc2CN1C(=O)c1ccco1` (centres undefined), the z-score was found to be 0.439.

`Cc1ccc(Nc2cc(C)nc3c(C)ccc([N+](=O)[O-])c23)cc1` had a z-score of -0.0986. Turning to `CCOC(=O)c1cn(CC)c2ccc(S(=O)(=O)N3CC(C)CC(C)C3)cc2c1=O` (centres undefined), the z-score is -0.315. `CCOC(=O)Cn1nnnc1C(CC)N(Cc1cc2ccc(C)cc2[nH]c1=O)C1CCCC1` (centres undefined) showed a z-score of -1.12. With `O=C(CCc1ccccc1)N/N=C/c1cc(Br)ccc1O`, the z-score is 0.124. Regarding `Cc1cc(Br)ccc1NC(=O)C1CCCO1` (centres undefined), the z-score is -0.602. As for `CN(CCc1ccccn1)S(=O)(=O)c1ccccc1F`, the figure is 0.185.

With `CCOC(=O)N1CCC(c2nc(C)sc2C(=O)O)CC1`, the z-score was -0.00744.

Take `Cc1ccc(-c2nnc(SCC(=O)NC(=O)Nc3ccc(C)cc3C)n2N)cc1`: the z-score is -0.349. The compound `Cc1cnn(C(=S)NCc2ccc(Cl)cc2)c1` yielded a z-score of 0.235. Take `O=S(=O)(Cc1nc2ccccc2s1)c1ccccc1`: the z-score was determined as 0.0223. With `CC(CNC(=O)C(=O)NC(C)CCc1ccccc1)Cc1ccccc1` (centres undefined) the figure was -0.494; with `Cc1onc(-c2c(F)cccc2Cl)c1C(=O)Nc1ccc(S(=O)(=O)Nc2ncccn2)cc1`, 0.0721; with `C(#Cc1ccccc1)CN1CCN(c2ccccn2)CC1`, 0.755.

Turning to `Cc1nc(-c2ccccn2)sc1C(=O)Nc1ccc(Cl)c(Cl)c1`, the z-score was -0.00279. The compound `COc1cc(C(=O)NNC2=NC(C)(C)Cc3cc(C)c(C)cc32)cc(OC)c1OC` yielded a z-score of -0.205. Regarding `CC(C(=O)NCC1(c2ccccc2)CCCC1)N1CCCC1` (centres undefined), the z-score was 0.127. Consider `CCOC(=O)C1=C(C)Nc2nc(SCC(=O)OC)nn2C1c1cc(F)cc(F)c1` (centres undefined), for which the z-score was -0.384. Regarding `CCCn1c(Sc2nc3c(c(=O)[nH]c(=O)n3C)n2CCC)nc2c1c(=O)[nH]c(=O)n2C`, the z-score was -0.671.

On to `CCOC(=O)c1c(C)n(C)c2ccc(OC(=O)c3ccc(N4C(=O)CCC4=O)cc3)cc12`, for which the z-score was 0.145.

In turn, `COC(=O)C1=C(Nc2ccc(C)cc2)C=C(C)C(C(=O)OC)C1c1ccc(OC)cc1` (centres undefined) gave a z-score of -0.0105.

On to `N#CC1=C(N)SC(C(=O)c2ccccc2)C1c1cccs1` (centres undefined), for which the z-score is -0.43. In turn, `C/C(=N\NC(=O)c1c(Br)c(C)nn1C)c1cccc(NC(=O)C2CCC2)c1` came in with a z-score of -1.59.

`N#Cc1ccc(-c2csc(NC(=O)/C=C/c3cccs3)n2)cc1` displayed a z-score of -0.212. With `Cc1ccc(C(=O)NC2(C(F)(F)F)N=C3SCCN3C2=O)cc1` (centres undefined) the figure was 2.91; with `Cc1ccc2ccccc2[n+]1CCCS(=O)(=O)[O-]`, 1.29; with `COc1ccc(NC(=S)N(CCCN2CCN(C)CC2)Cc2cccs2)cc1`, 0.221. Consider `C=C(C)CN=c1scc(C)n1/N=C/c1ccco1`, for which the z-score is -0.798. Regarding `CC(=O)NC(CC(=O)Nc1cccc(S(=O)(=O)N2CCCCC2)c1)c1ccccc1` (centres undefined), the z-score was 0.132. The compound `CCN(CC)C(=O)c1sc(NC(=O)Cc2ccc(OC)cc2)c(C#N)c1C` had a z-score of -0.246. For `CC(=O)NCC(=O)N(C)C(C(=O)Nc1ccc(C(C)C)cc1)c1ccccc1` (centres undefined), the z-score is 0.272. With `NC(=O)CNC(=O)[C@@H]1CC2(CC(c3cccc([N+](=O)[O-])c3)=NO2)CN1C(=O)c1ccccc1` (some centres undefined) the figure was -0.201; with `CCCn1c(SCC(N)=O)nc2c(c1=O)C1(CCCC1)Cc1ccccc1-2`, -0.333. As for `O=C1C(=O)N(CNc2ccccn2)c2ccccc21`, the figure is 0.0523. Consider `CCn1cc(/C=N/NS(=O)(=O)c2ccc(C)cc2)c(C)n1`, for which the z-score is -0.045. As for `CCN(CC)S(=O)(=O)c1ccc(NC2c3ccccc3C(=O)N2Cc2ccco2)cc1` (centres undefined), the figure is -1.18; as for `COc1ccc(-c2nc(NC(=O)CSc3nnc4ccccn34)ns2)cc1`, -0.0274.

As for `CC(=O)c1cc2c(C)cc(=O)oc2cc1O`, the z-score was -0.155. As for `COC(=O)Nc1nnc(Cc2ccc(Cl)cc2)s1`, the figure is 2.4; as for `O=C(N/N=C/c1c[nH]c2c1ccc1ccccc12)c1ccc([N+](=O)[O-])cc1`, -0.602. As to `Cc1ccc(Nc2nnc(SCC(=O)Nc3ncc(S(=O)(=O)c4ccc([N+](=O)[O-])cc4)s3)s2)cc1`, the z-score was -0.282. `Cc1noc(C)c1COC(=O)c1ccc2c(c1)OCCO2` displayed a z-score of -0.998. `COC(=O)Nc1nc(C)c(C(=O)c2ccccc2)s1` yielded a z-score of 1.66. In the case of `CCCCn1c(CNC(=O)C(C)(C)C)nc2ccccc21`, the z-score is -0.464. Take `O=C(COC(=O)c1ccc(Br)o1)NCc1cccs1`: the z-score is -0.099.

Compound `COc1ccnc(N2CCN(c3ccc(Cl)cc3)CC2)c1C#N` came in with a z-score of -0.323. With `Cc1ccc2c(c1)N(CC(=O)N1CCCc3ccccc31)C(=O)C(C)O2` (centres undefined), the z-score is -0.363. As for `CCC(=O)Nc1ccc(C(=O)CSc2nnc(-c3ccc(O)cc3)n2CC2CCCO2)cc1` (centres undefined), the figure is 0.865; as for `O=C(Nc1cccc(C(F)(F)F)c1)c1ccc2nc(N3C(=O)CCC3=O)sc2c1`, -0.134; as for `Cn1cc(Br)c(C(=O)NNC(=O)c2ccc(Cl)cc2)n1`, 0.00226. Take `CCOC(=O)C1CCCN(CC(O)COc2cccc(C)c2)C1` (centres undefined): the z-score is -0.189. Compound `CCOC(=O)C1CCN(C(=O)CCN2C(=O)C3C4C=CC(C4)C3C2=O)CC1` (centres undefined) came in with a z-score of 0.00852. `Clc1ccc(-c2nnc(SCc3nc(-c4ccccc4)no3)o2)cc1` had a z-score of -0.0626.

As to `CCc1ccc(N/C(SC)=C(/C#N)C(N)=O)cc1`, the z-score was 0.119. `CCOc1ccc(/C=C/C(=O)NCc2ccccc2)cc1` displayed a z-score of -0.184.

Consider `Cc1nc(NC(=O)COc2ccc(Cl)cc2)sc1C(=O)N(C)C`, for which the z-score was -0.121.

Compound `CCn1nc(C)c(/C=N\NC(=O)c2ccc3c(c2)OCO3)c1C` had a z-score of -0.209. `CN(C)C(=O)c1cn(-c2ccccc2)nc1-c1cccs1` registered a z-score of 0.354.

The compound `CCC(CC)c1nnc(NC(=O)c2nc3nc(C)cc(C)n3n2)s1` registered a z-score of -0.0644. As for `COc1ccc(NC(=O)c2cc(C(C)C)on2)c(OC)c1`, the figure is 0.43. As for `O=C(OCC1OC(n2ccc(=O)[nH]c2=O)C(O)C1OC(=O)c1ccccc1)c1ccccc1` (centres undefined), the figure is -0.354.
